The structures appear in SMILES notation. Over roughly 2,900 compounds, “IRF Lucia reporter activity, fold change vs agonist alone” has its median near 0.9; the highest 2% begin near 2.8. Some of the results follow.

The test system of experiment [1] is RAW-Dual. In words: IRF Lucia reporter activity, fold change vs agonist alone; higher = enhanced IRF activity. Conditions: agonist: MPLA (TLR4) […]. An outline of the steps: (§1)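 RAW-Dual macrophages were seeded in DMEM at 50,000 cells/well in 384-well plates, given 50 nL of library stock by pin tool, and given a PRR agonist 1 h later. Plates were held at 37 °C, 5% CO2 for 20 hours, after which supernatant was read for IRF by QuantiLuc luminescence and for NF-κB by QuantiBlue absorbance at 620 nm. Reporter activity is expressed as fold change over wells that received agonist alone. A well was called cytotoxic when IncuCyte confluency fell below 70% of agonist controls in both mask sets.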

In experiment [2] the test system is RAW-Dual. Nature of the experiment: IRF Lucia reporter activity, fold change vs agonist alone; cytotoxicity flag (confluency mask): not cytotoxic; higher = enhanced IRF activity. An outline of the steps: as §1
The subject of experiment [3] is RAW-Dual. In words: IRF Lucia reporter activity, fold change vs agonist alone; cytotoxicity flag (confluency mask): cytotoxic (confluency <70% of control); higher = enhanced IRF activity. Put shortly:
as §1

Setting [4] is: library stock concentration (final ~1000-fold dilution): 10 mM, cytotoxicity flag (confluency mask): not cytotoxic.
[5] abbreviates: agonist: 3'3'-cGAMP (STING) 10 ug/mL.

As for `O=C1NC(=O)C(c2cn3c4c(cccc24)CCC3)C1c1c[nH]c2ccccc12` (stereo not given), the “IRF Lucia reporter activity” value in experiment [1] (setting [4]) was 1.84.
In the case of `O=C1NC(=O)C(c2cn3c4c(cccc24)CCC3)C1c1c[nH]c2ccccc12` (stereo not given) (library stock concentration (final ~1000-fold dilution): 10 mM), the “IRF Lucia reporter activity” value in experiment [2] (setting [5]) was determined as 0.237; in experiment [2] (agonist: LPS (TLR4) 0.1 ug/mL), 1.25.
The corresponding values for `NC(=O)c1ccc(I)c([N+](=O)[O-])c1` (library stock concentration (final ~1000-fold dilution): 10 mM) are 0.75 and 1.01.
`NC(=O)c1ccc(I)c([N+](=O)[O-])c1`: the “IRF Lucia reporter activity” value in experiment [1] (setting [4]) stood at 0.87.
As to `CC(C)c1nc(N(C)S(C)(=O)=O)nc(-c2ccc(F)cc2)c1/C=C/C(O)CC(O)CC(=O)O` (stereo not given) (library stock concentration (final ~1000-fold dilution): 10 mM), the “IRF Lucia reporter activity” value in experiment [2] (setting [5]) is 0.669; in experiment [2] (agonist: LPS (TLR4) 0.1 ug/mL), 1.16.
For `CC(C)c1nc(N(C)S(C)(=O)=O)nc(-c2ccc(F)cc2)c1/C=C/C(O)CC(O)CC(=O)O` (stereo not given), the “IRF Lucia reporter activity” value in experiment [1] (setting [4]) came out at 0.953.
For the compound `CCOc1ccc2nc(S(N)(=O)=O)sc2c1` (library stock concentration (final ~1000-fold dilution): 10 mM), the “IRF Lucia reporter activity” value in experiment [2] (setting [5]) came to 1.03; in experiment [2] (agonist: LPS (TLR4) 0.1 ug/mL), 1.07.
`CCOc1ccc2nc(S(N)(=O)=O)sc2c1`: the “IRF Lucia reporter activity” value in experiment [1] (setting [4]) was 1.03.
Consider `COC(=O)c1ccc(O)c(OC)c1` (library stock concentration (final ~1000-fold dilution): 10 mM), for which the “IRF Lucia reporter activity” value in experiment [2] (setting [5]) is 0.836; in experiment [2] (agonist: LPS (TLR4) 0.1 ug/mL), 1.1.
The corresponding values for `CS(=O)(=O)c1ccc(-c2nnc(/C=C/c3nnc(-c4ccc(C#N)cc4)o3)n2-c2ccccc2Cl)nc1` (library stock concentration (final ~1000-fold dilution): 10 mM) are 0.734 and 0.946.
For `CS(=O)(=O)c1ccc(-c2nnc(/C=C/c3nnc(-c4ccc(C#N)cc4)o3)n2-c2ccccc2Cl)nc1`, the “IRF Lucia reporter activity” value in experiment [1] (setting [4]) worked out at 0.824.
On the same count and under the same terms, then `CN(C)CCC(c1ccc(Cl)cc1)c1ccccn1.O=C(O)/C=C\C(=O)O` (stereo not given), with 0.725.
On to `CN(C)CCC(c1ccc(Cl)cc1)c1ccccn1.O=C(O)/C=C\C(=O)O` (stereo not given) (library stock concentration (final ~1000-fold dilution): 10 mM), for which the “IRF Lucia reporter activity” value amounted to 1.01 in experiment [2] (setting [5]) and 0.973 in experiment [2] (agonist: LPS (TLR4) 0.1 ug/mL).
The corresponding values for `COc1cc2c(cc1OC(C)C)C(c1ccc(Cl)cc1)N(c1ccc(N(C)CC3CCC(N4CCN(C)C(=O)C4)CC3)cc1)C(=O)C2` (stereo not given) (library stock concentration (final ~1000-fold dilution): 10 mM) are 0.135 and 1.35.
As to `COc1cc2ncnc(Nc3cccc(Cl)c3)c2cc1OC`, the “IRF Lucia reporter activity” value in experiment [1] (library stock concentration (final ~1000-fold dilution): 10 mM, cytotoxicity flag (confluency mask): cytotoxic (confluency <70% of control)) turned out to be 0.437.
On to `COc1cc2ncnc(Nc3cccc(Cl)c3)c2cc1OC` (library stock concentration (final ~1000-fold dilution): 10 mM), for which the “IRF Lucia reporter activity” value in experiment [3] (setting [5]) came out at 0.306; in experiment [3] (agonist: LPS (TLR4) 0.1 ug/mL) it was 0.352.
As to `O=c1oc2cc(O)ccc2s1`, the “IRF Lucia reporter activity” value in experiment [1] (setting [4]) worked out at 0.999.
On to `O=c1oc2cc(O)ccc2s1` (library stock concentration (final ~1000-fold dilution): 10 mM), for which the “IRF Lucia reporter activity” value in experiment [2] (setting [5]) is 0.996; in experiment [2] (agonist: LPS (TLR4) 0.1 ug/mL), 1.06.
Take `O=C(O)c1ccccc1O`: in experiment [1] (setting [4]), the “IRF Lucia reporter activity” value came out at 1.16.
With `O=C(O)c1ccccc1O` (library stock concentration (final ~1000-fold dilution): 10 mM), the “IRF Lucia reporter activity” value was 1.08 in experiment [2] (setting [5]) and 1.46 in experiment [2] (agonist: LPS (TLR4) 0.1 ug/mL).
For `CCN(CC)CCOC(=O)c1ccc(N)cc1.Cl` (library stock concentration (final ~1000-fold dilution): 10 mM), the results for the “IRF Lucia reporter activity” value in experiment [2] (setting [5]) and in experiment [2] (agonist: LPS (TLR4) 0.1 ug/mL) were 1.05 and 1.3, respectively.
On to `CCN(CC)CCOC(=O)c1ccc(N)cc1.Cl`, for which the “IRF Lucia reporter activity” value in experiment [1] (setting [4]) turned out to be 1.15.
Still for that read-out and setting: then `Cc1cc2c(s1)Nc1ccccc1N=C2N1CCN(C)CC1`, with 0.957.
As to `Cc1cc2c(s1)Nc1ccccc1N=C2N1CCN(C)CC1` (library stock concentration (final ~1000-fold dilution): 10 mM), the “IRF Lucia reporter activity” value in experiment [2] (setting [5]) came out at 0.864; in experiment [2] (agonist: LPS (TLR4) 0.1 ug/mL) it was 1.03.
The corresponding values for `CN1C(=O)C(Cc2c[nH]c3ccccc23)NC1=S` (stereo not given) (library stock concentration (final ~1000-fold dilution): 10 mM) are 0.553 and 3.04.
As to `CN1CCN2c3ccccc3Cc3ccccc3C2C1.Cl` (stereo not given), in experiment [1] (setting [4]), the “IRF Lucia reporter activity” value stood at 1.29.
Regarding `CN1CCN2c3ccccc3Cc3ccccc3C2C1.Cl` (stereo not given) (library stock concentration (final ~1000-fold dilution): 10 mM), the “IRF Lucia reporter activity” value in experiment [2] (setting [5]) came to 0.917; in experiment [2] (agonist: LPS (TLR4) 0.1 ug/mL), 1.02.
As to `C=C1c2cccc(O)c2C(=O)C2=C(O)C3(O)C(=O)C(C(N)=O)=C(O)C(N(C)C)C3C(O)C12.Cl` (stereo not given), the “IRF Lucia reporter activity” value in experiment [1] (library stock concentration (final ~1000-fold dilution): 10 mM water, cytotoxicity flag (confluency mask): not cytotoxic) was determined as 1.35.
`C=C1c2cccc(O)c2C(=O)C2=C(O)C3(O)C(=O)C(C(N)=O)=C(O)C(N(C)C)C3C(O)C12.Cl` (stereo not given) (library stock concentration (final ~1000-fold dilution): 10 mM water): the figures for the “IRF Lucia reporter activity” value in experiment [2] (setting [5]) and in experiment [2] (agonist: LPS (TLR4) 0.1 ug/mL) were 1.22 and 0.852, respectively.

Values taken from the supplement of paper PMC10037445.
